Consider seven compounds from patent publication US8263596B2, “Kinase inhibitors and method of treating cancer” (University Health Network, priority 2010, dated 2012).

Read-outs that look alike come from different tables or passages of the source. Where only a bound is given, the exact number is not on record here.

One may read the GI50 as the concentration at which growth is held to half of that of the control.

Holding throughout (assay type): cell-based
The subject of test [1] is MCF-7 luminal breast cancer cell line. The settings on record: Homo sapiens, MCF7, 120 h; MCF-7 luminal breast cancer cell line; SRB assay after 5 days culture; read-out: Cell Line GI50 Range MCF-7.
In test [2] the test system is MDA-MB-468 basal breast cancer cell line. As to conditions: Homo sapiens, 120 h; MDA-MB-468 basal breast cancer cell line; SRB assay after 5 days culture; read-out: Cell Line GI50 Range MDA-MB-468. On the technique in general: The SRB assay estimates cell density from bound dye.
Test [3] has as its system HCC1954 basal breast cancer cell line. The settings on record: Homo sapiens, HCC1954 basal breast cancer cell line, SRB assay after 5 days culture, read-out: Cell Line GI50 Range HCC-1954.
Test [4] has as its system SW620 colon cancer cells. As to conditions: Homo sapiens, 120 h; SW-620 colon cancer cell line; SRB assay after 5 days culture; read-out: Cell Line GI50 Range SW-620.
The subject of test [5] is A549 lung cancer cells. The settings on record: Homo sapiens, 120 h; A549 lung cancer cell line; SRB assay after 5 days culture; read-out: Cell Line GI50 Range A-549.

Regarding `NS(=O)(=O)c1cccc(-c2n[nH]c3cc(C4C[C@@]45C(=O)Nc4ccccc45)ccc23)c1` (mixture of isomers) [Example A130, 3-(6-((1R*,2S*)-2′-oxospiro[cyclopropane-1,3′-indoline]-2-yl)-1H-indazol-3-yl)benzenesulfonamide], the GI50 in test [1] is 1000 to 10000 nM; in test [2], 1000 to 10000 nM; in test [3] (120 h), greater than 10000 nM; in test [4], greater than 10000 nM; in test [5], greater than 10000 nM.

With `COc1ccc2c(c1)[C@]1(CC1c1ccc3c(-c4cccc(C(=O)N5CCN(C)CC5)c4)n[nH]c3c1)C(=O)N2` (mixture of isomers) [Example A149, (1R*,2S*)-5′-methoxy-2-(3-(3-(4-methylpiperazine-1-carbonyl)phenyl)-1H-indazol-6-yl)spiro[cyclopropane-1,3′-indolin]-2′-one 2,2,2-trifluoroacetate], the GI50 in test [1] was 1000 to 10000 nM; in test [2], 1000 to 10000 nM; in test [3] (120 h), greater than 10000 nM; in test [4], greater than 10000 nM; in test [5] it was greater than 10000 nM.

Turning to `COc1ccc2c(c1)[C@]1(CC1c1ccc3c(-c4ccc(CCN5CCOCC5)cc4)n[nH]c3c1)C(=O)N2` (mixture of isomers) [Example A159, (1R*,2S*)-5′-methoxy-2-(3-(4-(2-morpholinoethyl)phenyl)-1H-indazol-6-yl)spiro[cyclopropane-1,3′-indolin]-2′-one 2,2,2-trifluoroacetate], the GI50 in test [1] was 100 to 1000 nM; in test [2] it was 100 to 1000 nM; in test [3] (HCC1954, 120 h), greater than 10000 nM; in test [4], 1000 to 10000 nM; in test [5] it was 100 to 1000 nM.

For the compound `COc1ccc2c(c1)[C@]1(C[C@H]1c1ccc3c(-c4ccc(N5CCN(C)CC5)cc4)n[nH]c3c1)C(=O)N2C` (relative stereo) [Example A100, (1R*,2S*)-5′-methoxy-1′-methyl-2-(3-(4-(4-methylpiperazin-1-yl)phenyl)-1H-indazol-6-yl)spiro[cyclopropane-1,3′-indolin]-2′-one 2,2,2-trifluoroacetate], the GI50 in test [1] was 100 to 1000 nM; in test [2] it was 100 to 1000 nM; in test [3] (120 h), 1000 to 10000 nM; in test [4] it was less than 100 nM; in test [5] it was less than 100 nM.

`COc1ccc2c(c1)[C@]1(C[C@H]1c1ccc3c(-c4ccc(N5CCC(O)CC5)cc4)n[nH]c3c1)C(=O)N2` (relative stereo) [Example A118, (1R*,2S*)-2-(3-(4-(4-hydroxypiperidin-1-yl)phenyl)-1H-indazol-6-yl)-5′-methoxyspiro[cyclopropane-1,3′-indolin]-2′-one 2,2,2-trifluoroacetate]: the GI50 in test [1] is 1000 to 10000 nM; in test [2], 100 to 1000 nM; in test [3] (120 h) it was greater than 10000 nM; in test [4], 1000 to 10000 nM; in test [5], 1000 to 10000 nM.

`O=C1Nc2ccccc2[C@]12C[C@H]2c1ccc2c(-c3ccc(CN4CCOCC4)cc3)n[nH]c2c1` (relative stereo) [Example A154, (1R*,2S*)-2-(3-(4-(morpholinomethyl)phenyl)-1H-indazol-6-yl)spiro [cyclopropane-1,3′-indolin]-2′-one 2,2,2-trifluoroacetate]: the GI50 was 1000 to 10000 nM in test [1]; 1000 to 10000 nM in test [2]; greater than 10000 nM in test [3] (120 h); greater than 10000 nM in test [4]; 1000 to 10000 nM in test [5].

Take `CN1CCN(c2ccc(/C=C/c3n[nH]c4cc([C@@H]5C[C@@]56C(=O)Nc5ccccc56)ccc34)cn2)CC1` (relative stereo) [Example A157, (1R*,2S*)-2-(3-((E)-2-(6-(4-methylpiperazin-1-yl)pyridin-3-yl)vinyl)-1H-indazol-6-yl)spiro[cyclopropane-1,3′-indolin]-2′-one bis-2,2,2-trifluoroacetate]: the GI50 in test [1] is 1000 to 10000 nM; in test [2], less than 100 nM; in test [3] (120 h) it was 1000 to 10000 nM; in test [4] it was 100 to 1000 nM; in test [5] it was less than 100 nM.
